# The other results are listed elsewhere or left out.
# B1: LgFlo1 (Saccharomyces pastorianus), B3IUA8 (protein)
# chain: SGSTQACLPVGSRKNGMNVNFYKYSLQDSTTYSDPQYMAYKYSDTKKLGSVSGQTHLSIYYGPNTAFWNTASWSSDLFGFYTTPTNVTVEMTGYFLPPQTGSYTFKFATVDDSAILSVGGSIAFECCAQEQPPITSTDFTINGIKPWDAATPTDIKGSTYMYAGYYYPIKIVYSNAKALARLPVSVVLPDGTEVNDDFEGYVYSFDDDLSQSNCTIPDPSKHTTS
# How the values were obtained:
# Assay in all cases: glycan array binding signal (z-score within array); higher = stronger binding
# Conditions in all cases: glycan notation: IUPAC condensed, linker removed
# [1] = biological target: GlcNAc(b1-4)GlcNAc(b1-4)GlcNAc(b1-4)GlcNAc(b1-4)GlcNAc
# Outline: (§1)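 Arrays were curated from the Consortium for Functional Glycomics database, 3228 in total, and kept only where the protein sequence was available. Binding is expressed as a within-array Z-score. This score was averaged across arrays of the same protein sequence at different concentrations or buffers and across linkers, and negative values can be read as non-binding.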
# [2] = biological target: GlcNAc(b1-4)GlcNAc(b1-4)GlcNAc(b1-4)GlcNAc(b1-4)GlcNAc(b1-4)GlcNAc
# Outline: as §1
# [3] = biological target: GlcNAc(b1-4)[GlcNAc(b1-6)]GalNAc
# Outline: as §1
# [4] = biological target: GlcNAc(b1-6)Gal(b1-4)GlcNAc
# Outline: as §1
# GlcNAc(b1-6)GalNAc = biological target: GlcNAc(b1-6)GalNAc
# Outline: as §1
# [5] = biological target: GlcNAc6S(b1-3)Gal(b1-4)GlcNAc
# Outline: as §1
# Kdn(a2-3)Gal(b1-3)GalNAc = biological target: Kdn(a2-3)Gal(b1-3)GalNAc
# Outline: as §1
# Kdn(a2-3)Gal(b1-3)GlcNAc = biological target: Kdn(a2-3)Gal(b1-3)GlcNAc
# Outline: as §1
# Kdn(a2-3)Gal(b1-4)Glc = biological target: Kdn(a2-3)Gal(b1-4)Glc
# Outline: as §1
# Kdn(a2-3)Gal(b1-4)GlcNAc = biological target: Kdn(a2-3)Gal(b1-4)GlcNAc
# Outline: as §1
# [6] = biological target: Kdn(a2-3)Gal(b1-4)[Fuc(a1-3)]GlcNAc
# Outline: as §1
# Kdn(a2-6)Gal(b1-4)GlcNAc = biological target: Kdn(a2-6)Gal(b1-4)GlcNAc
# Outline: as §1
# [7] = biological target: Man(a1-2)Man(a1-2)Man(a1-3)Man
# Outline: as §1
# [8] = biological target: Man(a1-2)Man(a1-2)Man(a1-6)[Man(a1-3)]Man
# Outline: as §1
# Man(a1-2)Man(a1-3)Man = biological target: Man(a1-2)Man(a1-3)Man
# Outline: as §1
# [9] = biological target: Man(a1-2)Man(a1-3)[Man(a1-2)Man(a1-6)]Man
# Outline: as §1
# [10] = biological target: Man(a1-2)Man(a1-3)[Man(a1-2)Man(a1-6)]Man(a1-6)[Man(a1-2)Man(a1-2)Man(a1-3)]Man
# Outline: as §1
# [11] = biological target: Man(a1-2)Man(a1-3)[Man(a1-2)Man(a1-6)]Man(a1-6)[Man(a1-2)Man(a1-2)Man(a1-3)]Man(b1-4)GlcNAc(b1-4)GlcNAc
# Outline: as §1
# [12] = biological target: Man(a1-2)Man(a1-3)[Man(a1-6)]Man(a1-6)[Man(a1-2)Man(a1-3)]Man(b1-4)GlcNAc(b1-4)GlcNAc
# Outline: as §1
# [13] = biological target: Man(a1-2)Man(a1-6)[Man(a1-3)]Man(a1-6)[Man(a1-2)Man(a1-2)Man(a1-3)]Man
# Outline: as §1
# [14] = biological target: Man(a1-2)Man(a1-6)[Man(a1-3)]Man(a1-6)[Man(a1-2)Man(a1-2)Man(a1-3)]Man(b1-4)GlcNAc(b1-4)GlcNAc
# Outline: as §1
# Man(a1-3)[Man(a1-6)]Man = biological target: Man(a1-3)[Man(a1-6)]Man
# Outline: as §1
# [15] = biological target: Man(a1-3)[Man(a1-6)]Man(a1-6)[Man(a1-2)Man(a1-3)]Man(b1-4)GlcNAc(b1-4)GlcNAc
# Outline: as §1
# [16] = biological target: Man(a1-3)[Man(a1-6)]Man(a1-6)[Man(a1-3)]Man
# Outline: as §1
# [17] = biological target: Man(a1-3)[Man(a1-6)]Man(a1-6)[Man(a1-3)]Man(b1-4)GlcNAc(b1-4)GlcNAc
# Outline: as §1
# [18] = biological target: Man(a1-3)[Man(a1-6)]Man(b1-4)GlcNAc(b1-4)GlcNAc
# Outline: as §1
# [19] = biological target: Man(a1-3)[Man(a1-6)]Man(b1-4)GlcNAc(b1-4)[Fuc(a1-6)]GlcNAc
# Outline: as §1
# Man(a1-6)Man = biological target: Man(a1-6)Man
# Outline: as §1
# Man(b1-4)GlcNAc = biological target: Man(b1-4)GlcNAc
# Outline: as §1
# MurNAc(b1-4)GlcNAc = biological target: MurNAc(b1-4)GlcNAc
# Outline: as §1
# Neu5Ac(a2-3)Gal = biological target: Neu5Ac(a2-3)Gal
# Outline: as §1
# [20] = biological target: Neu5Ac(a2-3)Gal(b1-3)GalNAc
# Outline: as §1
# [21] = biological target: Neu5Ac(a2-3)Gal(b1-3)GalNAc(b1-3)Gal(a1-4)Gal(b1-4)Glc
# Outline: as §1
# [22] = biological target: Neu5Ac(a2-3)Gal(b1-3)GalNAc(b1-4)Gal(b1-4)Glc
# Outline: as §1
# [23] = biological target: Neu5Ac(a2-3)Gal(b1-3)GalNAc(b1-4)[Neu5Ac(a2-3)]Gal(b1-4)Glc
# Outline: as §1
# [24] = biological target: Neu5Ac(a2-3)Gal(b1-3)GalNAc(b1-4)[Neu5Ac(a2-8)Neu5Ac(a2-3)]Gal(b1-4)Glc
# Outline: as §1
# [25] = biological target: Neu5Ac(a2-3)Gal(b1-3)GalNAc6S
# Outline: as §1
# [26] = biological target: Neu5Ac(a2-3)Gal(b1-3)GlcNAc
# Outline: as §1
# [27] = biological target: Neu5Ac(a2-3)Gal(b1-3)GlcNAc(b1-2)Man
# Outline: as §1
# [28] = biological target: Neu5Ac(a2-3)Gal(b1-3)GlcNAc(b1-2)Man(a1-3)[GlcNAc(b1-4)][Neu5Ac(a2-3)Gal(b1-3)GlcNAc(b1-2)Man(a1-6)]Man(b1-4)GlcNAc(b1-4)GlcNAc
# Outline: as §1
# [29] = biological target: Neu5Ac(a2-3)Gal(b1-3)GlcNAc(b1-2)Man(a1-3)[Neu5Ac(a2-3)Gal(b1-3)GlcNAc(b1-2)Man(a1-6)]Man(b1-4)GlcNAc(b1-4)GlcNAc
# Outline: as §1
# [30] = biological target: Neu5Ac(a2-3)Gal(b1-3)GlcNAc(b1-2)[Neu5Ac(a2-3)Gal(b1-3)GlcNAc(b1-4)]Man(a1-6)[Neu5Ac(a2-3)Gal(b1-3)GlcNAc(b1-2)Man(a1-3)]Man(b1-4)GlcNAc(b1-4)GlcNAc
# Outline: as §1
# [31] = biological target: Neu5Ac(a2-3)Gal(b1-3)GlcNAc(b1-3)Gal(b1-3)GlcNAc
# Outline: as §1
# [32] = biological target: Neu5Ac(a2-3)Gal(b1-3)GlcNAc(b1-3)Gal(b1-4)GlcNAc
# Outline: as §1
# [33] = biological target: Neu5Ac(a2-3)Gal(b1-3)GlcNAc(b1-3)GalNAc
# Outline: as §1
binder,measurement,setting,value
B1,glycan array binding signal (z-score),[1],-0.419
same,glycan array binding signal (z-score),[2],-0.261
same,glycan array binding signal (z-score),[3],-0.359
same,glycan array binding signal (z-score),[4],-0.436
same,glycan array binding signal (z-score),GlcNAc(b1-6)GalNAc,-0.336
same,glycan array binding signal (z-score),[5],-0.317
same,glycan array binding signal (z-score),Kdn(a2-3)Gal(b1-3)GalNAc,-0.379
same,glycan array binding signal (z-score),Kdn(a2-3)Gal(b1-3)GlcNAc,0.066
same,glycan array binding signal (z-score),Kdn(a2-3)Gal(b1-4)Glc,-0.235
same,glycan array binding signal (z-score),Kdn(a2-3)Gal(b1-4)GlcNAc,-0.143
same,glycan array binding signal (z-score),[6],-0.332
same,glycan array binding signal (z-score),Kdn(a2-6)Gal(b1-4)GlcNAc,-0.359
same,glycan array binding signal (z-score),[7],0.282
same,glycan array binding signal (z-score),[8],-0.307
same,glycan array binding signal (z-score),Man(a1-2)Man(a1-3)Man,-0.013
same,glycan array binding signal (z-score),[9],-0.012
same,glycan array binding signal (z-score),[10],0.04
same,glycan array binding signal (z-score),[11],-0.336
same,glycan array binding signal (z-score),[12],-0.305
same,glycan array binding signal (z-score),[13],-0.222
same,glycan array binding signal (z-score),[14],0.068
same,glycan array binding signal (z-score),Man(a1-3)[Man(a1-6)]Man,-0.203
same,glycan array binding signal (z-score),[15],-0.347
same,glycan array binding signal (z-score),[16],-0.267
same,glycan array binding signal (z-score),[17],-0.404
same,glycan array binding signal (z-score),[18],-0.216
same,glycan array binding signal (z-score),[19],0.154
same,glycan array binding signal (z-score),Man(a1-6)Man,-0.278
same,glycan array binding signal (z-score),Man(b1-4)GlcNAc,-0.318
same,glycan array binding signal (z-score),MurNAc(b1-4)GlcNAc,-0.303
same,glycan array binding signal (z-score),Neu5Ac(a2-3)Gal,-0.003
same,glycan array binding signal (z-score),[20],5.83
same,glycan array binding signal (z-score),[21],-0.329
same,glycan array binding signal (z-score),[22],-0.133
same,glycan array binding signal (z-score),[23],-0.34
same,glycan array binding signal (z-score),[24],0.381
same,glycan array binding signal (z-score),[25],-0.132
same,glycan array binding signal (z-score),[26],-0.366
same,glycan array binding signal (z-score),[27],-0.279
same,glycan array binding signal (z-score),[28],-0.135
same,glycan array binding signal (z-score),[29],-0.243
same,glycan array binding signal (z-score),[30],0.374
same,glycan array binding signal (z-score),[31],-0.588
same,glycan array binding signal (z-score),[32],-0.241
same,glycan array binding signal (z-score),[33],-0.13
